Measurements reported in the supplement of paper PMC5655136.
Values come from read counts of a selection and are noisy.

System: NB7
Assay: fold depletion of shRNA, plasmid library share / infected cells without Dox share (9 days) (ratio); higher = more depleted after infection (more toxic, leaky expression from a Tet-inducible vector; NB7 is a neuroblastoma line without caspase-8)
[1] = shRNA pool: CD95L ORF + CD95L 3'UTR + Venus libraries
[2] = shRNA pool: CD95 ORF + CD95 3'UTR + Venus libraries
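Further: shRNA barcodes quantified by deep sequencing of PCR amplicons from cellular DNA, counts expressed as percent of each subpool, ratio averaged over two biological duplicates.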

Row | Sequence | fold depletion of shRNA [1] | fold depletion of shRNA [2]
1 | GCCCCTCCAGGCACAGTTCTT | 32.2 | 
2 | GCCCCTTGTGTTTGGAATTAT |  | 1.31
3 | GCCCGAAGGCTACGTCCAGGA | 0.725 | 0.721
4 | GCCCGACAACCACTACCTGAG | 1.21 | 0.934
5 | GCCCGCAGCAGCTACCTGGGG | 0.443 | 
6 | GCCCGCTACCCCGACCACATG | 1.02 | 1.01
7 | GCCCGTGCCCTGGCCCACCCT | 1.44 | 1.01
8 | GCCCTGAGCAAAGACCCCAAC | 1.07 | 0.888
9 | GCCCTGCCAAGAAGGGAAGGA |  | 1.25
10 | GCCCTGGCCCACCCTCGTGAC | 0.635 | 0.835
11 | GCCCTGTCCTCCAGGTGAAAG |  | 1.36
12 | GCCCTTAGAAATTCTAGCCTG |  | 0.565
13 | GCCCTTCAATTACCCATATCC | 5.68 | 
14 | GCCGACAAGCAGAAGAACGGC | 0.533 | 1.17
15 | GCCGACCACTACCAGCAGAAC | 0.803 | 0.808
16 | GCCGAGGTGAAGTTCGAGGGC | 0.711 | 1.74
17 | GCCGCCGCCACCACTGCCTCC | 0.139 | 
18 | GCCGCCGCCGCCACCACTGCC | 0.259 | 
19 | GCCGCCGGGATCACTCTCGGC | 0.512 | 0.933
20 | GCCGGGATCACTCTCGGCATG | 0.312 | 2.71
21 | GCCTCCAAGGATGTTTAAAAT |  | 1.88
22 | GCCTCCACTACCGCTGCCACC | 75.3 | 
23 | GCCTCTAAATTACCTCTGATA |  | 1.79
24 | GCCTGAGAGTATTTAGGCAGA | 0.822 | 

Row | Sequence | fold depletion of shRNA [1] | fold depletion of shRNA [2]
25 | GCCTGCAGTGCTTCGCCCGCT | 0.551 | 0.894
26 | GCCTGCATCATGATGGCCAAT |  | 0.743
27 | GCCTGGGGATGTTTCAGCTCT | 6.55 | 
28 | GCCTGGTCAAAGGAGGCCACC | 0.687 | 
29 | GCCTGTGTCTCCTTGTGATGT | 4.23 | 
30 | GCCTTGCTACCTCAAGGGGGA | 1.78 | 
31 | GCCTTGGTAGGATTGGGCCTG | 0.728 | 
32 | GCCTTGGTGCTCATCTTAATG |  | 1.31
33 | GCCTTGTGATCAATGAAACTG | 3.03 | 
34 | GCGACACCCTGGTGAACCGCA | 1.8 | 0.808
35 | GCGACGGCCCCGTGCTGCTGC | 0.291 | 0.659
36 | GCGACGTAAACGGCCACAAGT | 0.878 | 0.91
37 | GCGAGGAGCTGTTCACCGGGG | 1.07 | 0.982
38 | GCGAGGGCGAGGGCGATGCCA | 0.472 | 
39 | GCGAGGGCGATGCCACCTACG | 0.707 | 1.25
40 | GCGATCACATGGTCCTGCTGG | 1.2 | 1.46
41 | GCGATGCCACCTACGGCAAGC | 2.81 | 1.51
42 | GCGCACCATCTTCTTCAAGGA | 2.32 | 1.74
43 | GCGCCGAGGTGAAGTTCGAGG | 0.804 | 0.885
44 | GCGCGATCACATGGTCCTGCT | 1.22 | 0.701
45 | GCGCTGAAGAGCCAACATATT |  | 1.26
46 | GCGTATGACACATTGATTAAA |  | 0.837
47 | GCGTGCAGCTCGCCGACCACT | 0.404 | 0.863
48 | GCGTGCCCTGCCAAGAAGGGA |  | 0.805

Row | Sequence | fold depletion of shRNA [1] | fold depletion of shRNA [2]
49 | GCGTGTCCGGCGAGGGCGAGG | 0.802 | 0.47
50 | GCTAACCCCACTCTATGAATC |  | 2.7
51 | GCTAAGTACCCAAATAGGAGT |  | 3.52
52 | GCTACAAATGGCAGCTTATAC |  | 1.31
53 | GCTACCAGGTGTTCTACACTC | 2.31 | 
54 | GCTACCAGTCCGCCCTGAGCA | 2.09 | 1.05
55 | GCTACCCCGACCACATGAAGC | 0.964 | 1.11
56 | GCTACCTCAAGGGGGACTGTC | 3.02 | 
57 | GCTACCTGGGGGCAGTGTTCA | 1.1 | 
58 | GCTACGGCCTGCAGTGCTTCG | 0.94 | 1.05
59 | GCTACGTCCAGGAGCGCACCA | 0.45 | 0.55
60 | GCTACTAATGATGTTTTCCTA | 2.47 | 
61 | GCTACTGCACTACTGGGCAGA | 1.35 | 
62 | GCTAGATTATCGTCCAAAAGT |  | 1.16
63 | GCTATGACCTTTTGCTGAAAT |  | 1.34
64 | GCTCAAAACTACCTACTTCTT |  | 0.872
65 | GCTCATCTTAATGGCCTAATG |  | 1.43
66 | GCTCCTCAACTCACCTAATGT | 0.591 | 
67 | GCTCGCCGACCACTACCAGCA | 1.11 | 1.68
68 | GCTCTACCTCAAAGACCTTTG |  | 5.15
69 | GCTCTCAGAGAAAGTAGCTTT |  | 2
70 | GCTCTCCCTGGGCCCCTCCAG | 24.8 | 
71 | GCTCTCTCTGGTCAATTTTGA | 1.21 | 
72 | GCTCTTCCACCTACAGAAGGA | 2.66 | 

Row | Sequence | fold depletion of shRNA [1] | fold depletion of shRNA [2]
73 | GCTCTTGTCATACCCCCAAGT |  | 2.11
74 | GCTGAAAGAGGCCAATGCCCC | 1.73 | 
75 | GCTGAAATATCAGTTACTGAA |  | 1.14
76 | GCTGAAGAGCCAACATATTTG |  | 3.15
77 | GCTGAAGGGCATCGACTTCAA | 3.51 | 3.09
78 | GCTGACCCTGAAGCTGATCTG |  | 1.39
79 | GCTGAGGAAAGTGGCCCATTT | 0.393 | 
80 | GCTGATCATTTATATGTCAAC | 1.06 | 
81 | GCTGATCTGCACCACCGGCAA | 2.6 | 2.66
82 | GCTGCCACCCCTGAAGAAGAG | 4.28 | 
83 | GCTGCCATGTGAAGAGGGAGA | 0.691 | 
84 | GCTGCCCGACAACCACTACCT | 0.711 | 0.988
85 | GCTGCCCGTGCCCTGGCCCAC | 0.995 | 0.94
86 | GCTGCTGCCCGACAACCACTA |  | 1.68
87 | GCTGGACGGCGACGTAAACGG | 0.567 | 0.79
88 | GCTGGAGTACAACTACAACAG | 3.09 | 
89 | GCTGGAGTCATGACACTAAGT |  | 1.62
90 | GCTGGAGTTCGTGACCGCCGC | 1.45 | 1.06
91 | GCTGGCAGAACTCCGAGAGTC | 5.99 | 
92 | GCTGGGCATCTGGACCCTCCT |  | 1.25
93 | GCTGTAAATACTGCTTGGTTT |  | 1.68
94 | GCTGTACTTTGTATATTCCAA | 0.903 | 
95 | GCTGTTCACCGGGGTGGTGCC | 0.953 | 1
96 | GCTTAAAAATCATTGATTGTC | 0.604 | 

Row | Sequence | fold depletion of shRNA [1] | fold depletion of shRNA [2]
97 | GCTTAGAAGTGGAAATAAACT |  | 0.887
98 | GCTTATACATAGCAATGGTAA |  | 0.995
99 | GCTTCGCCCGCTACCCCGACC |  | 1.61
100 | GCTTGCATAATAAGCTAAAGA | 1.05 | 
101 | GCTTGGTTTTTTACTGGGTAC |  | 2.15
102 | GCTTTCTGGAGTGAAGTATAA | 1.7 | 
103 | GCTTTGCCACCTCTCCATTTT |  | 1.08
104 | GCTTTGTCTTCTTCTTTTGCC |  | 1.95
105 | GCTTTGTGACATGTCATGAAC |  | 2.93
106 | GGAAAACAAACTTCATCAAGA |  | 1.33
107 | GGAAAACCAAGGTTCTCATGA |  | 1.84
108 | GGAAAAGGAAGACTAGAGGCT | 0.59 | 
109 | GGAAAATATGGGTTGCATTTG | 0.403 | 
110 | GGAAAGAAAGAAGCGTATGAC |  | 0.658
111 | GGAAAGCTAGGGACTGCACAG |  | 0.684
112 | GGAAAGTGGCCCATTTAACAG | 0.507 | 
113 | GGAAATAAACTGCACCCGGAC |  | 0.758
114 | GGAAATATCACCAAAAAATAC |  | 0.99
115 | GGAACCACAGCACAGGCCTGT | 1.2 | 
116 | GGAACCACCTAAAGAACTTCC |  | 2.41
117 | GGAACTCTAAGTATCCCCAGG | 1.84 | 
118 | GGAAGAACATAGAACTCTGGG | 0.621 | 
119 | GGAAGACACCTATGGAATTGT | 1.42 | 
120 | GGAAGACTGTTACTACAGTTG |  | 3.89

Row | Sequence | fold depletion of shRNA [1] | fold depletion of shRNA [2]
121 | GGAAGATGATGAGCTACTGCA | 2.08 | 
122 | GGAAGGAGTACACAGACAAAG |  | 1.02
123 | GGAAGGCCTGCATCATGATGG |  | 1.27
124 | GGAATATGACGGAAGAACATA | 1.23 | 
125 | GGAATCATCAAGGAATGCACA |  | 0.887
126 | GGAATGCACACTCACCAGCAA |  | 0.348
127 | GGAATGGGAAGACACCTATGG | 0.809 | 
128 | GGAATTATAAAATATAGGTAA |  | 0.819
129 | GGAATTGAGGAAGACTGTTAC |  | 0.537
130 | GGAATTGCTCTTGTCATACCC |  | 0.74
131 | GGAATTGTCCTGCTTTCTGGA | 0.912 | 
132 | GGACACCTTTTAACTCACCTC | 6.03 | 
133 | GGACATGGCTTAGAAGTGGAA |  | 1.79
134 | GGACATTACTAGTGACTCAGA |  | 1.17
135 | GGACCCAGAATACCAAGTGCA |  | 1.53
136 | GGACCCTCCTACCTCTGGTTC |  | 3.11
137 | GGACGACGGCAACTACAAGAC | 0.451 | 0.633
138 | GGACGGCAACATCCTGGGGCA | 0.922 | 1.04
139 | GGACGGCGACGTAAACGGCCA | 0.415 | 
